Data from PubChem BioAssay AID624296 (National Center for Advancing Translational Sciences (NCATS), 2012).
In all, about 350,000 compounds went through this assay and about 9,900 (2.8%) were called active. The inconclusive results got no clear call from the source; some entries with a clear call stand among them for comparison. Calls follow the shape of the dose curve; as a rule, active = well fitted activation curve with a large enough effect; inconclusive = small, poorly fitted or top-dose-only effect; inactive = no such curve, though single readings can be large or run the other way. Potencies of inconclusive entries are left out as doubtful fits.

Test: A quantitative high throughput screen for small molecules that induce DNA re-replication in MCF 10a normal breast cells. Also: nearly all actives have a fitted effect of over 50% in size.
Conditions: MCF 10A DNA re-replication, Hoechst nuclear intensity, 48 h; series mostly up to 46.1 µM
Potency is read from the fitted curve at half-maximal effect; tags tell the direction and shape of the fitted curve.

Row | Structure (SMILES) | Potency
1 | O=C1/C(=C\Nc2ccc(OC(F)(F)F)cc2)CCN1c1ncccn1 | inactive
2 | O=C(/C=C/c1ccccc1)Nc1ccc(Br)cn1 | active: 2.06 µM
3 | COc1cccc2cc(C(=O)NCC3CCCO3)c(=O)oc12 (centres undefined) | inactive
4 | Cc1ccccc1-c1cc2nc(C)c(C)c(=O)n2[nH]1 | inconclusive [activator, single point]
5 | CCOC(=O)c1cc(-c2ccncc2)nc2c1c(C)nn2-c1ccccn1 | inconclusive [activator, partial curve, poor fit]
6 | O=C(Nc1ccc(Cl)cc1C(=O)Nc1ccccn1)c1ccco1 | inactive
7 | CCN(C(=O)COC(=O)c1ccccc1Nc1cccc(C)c1C)C1CCS(=O)(=O)C1 (centres undefined) | inconclusive [activator, single point]
8 | Cc1ccc(Oc2c(C(N)=O)cc([N+](=O)[O-])cc2[N+](=O)[O-])cc1 | inconclusive [activator, single point]
9 | COc1ccccc1NCc1cc(=O)oc2c(C)c(O)ccc12 | inconclusive [activator, single point]
10 | N#Cc1ccc(OCC(=O)NC2CCCCCC2)cc1 | inconclusive [activator, single point]
11 | CN1C(=O)CSc2ccc(NC(=O)N3CCC(N4CCCCC4)CC3)cc21 | inconclusive [activator, single point]
12 | O=C(NC1CCN(Cc2ccccc2)CC1)c1cncc(Br)c1 | inactive
13 | Cc1cc(F)ccc1S(=O)(=O)Nc1ncnc2scc(-c3ccc(F)cc3)c12 | inconclusive [activator, single point]
14 | OCc1cccc[n+]1CCc1ccccc1 | inactive
15 | CCCC(=O)Nc1ccc(N2CCOCC2)cc1 | inconclusive [activator, single point]
16 | CC(OC(=O)Cn1cnc2c1c(=O)n(C)c(=O)n2C)C(=O)NCc1ccccc1 (centres undefined) | inconclusive [activator, partial curve, poor fit]
17 | CCOc1cccc(-c2nnc3sc(-c4cc(OC)c(OC)c(OC)c4)nn23)c1 | inconclusive [activator, full curve, poor fit]
18 | CCOc1cc(CNn2cn[nH]c2=S)cc(Cl)c1OCc1ccccc1F | inactive
19 | O=C(CC(=O)c1ccccc1O)c1ccc(F)cc1 | inconclusive [activator, single point]
20 | O=C(/C=C/c1ccccc1Cl)Nn1cnc2ccccc2c1=O | inconclusive [activator, single point]
21 | O=C(Nc1sc2c(c1C(=O)O)CCC2)C(=O)N1CCOCC1 | inconclusive [activator, single point]
22 | CC(C(=O)OCC(=O)Nc1ccc(S(=O)(=O)N2CCCCC2)cc1)N1C(=O)c2ccccc2C1=O (centres undefined) | inconclusive [activator, partial curve, poor fit]

Row | Structure (SMILES) | Potency
23 | COc1ccccc1NC(=O)c1ccccc1NC(=O)c1ccccn1 | inconclusive [activator, partial curve, poor fit]
24 | COc1ccc(C(=O)Nc2ccccc2C(=O)Nc2ccccc2C(=O)O)cc1 | inconclusive [activator, single point]
25 | O=C(NCc1ccc2c(c1)OCO2)c1ccc(CSCc2ccc(Cl)cc2)o1 | inconclusive [activator, single point]
26 | O=C(Cc1sc(-c2ccccc2)nc1-c1ccccc1)Nc1ccc(Cl)cc1 | inconclusive [activator, single point]
27 | Cn1cncc1C#Cc1ccc2cc(C(C)(C)O)oc(=O)c2c1 | inconclusive [activator, single point]
28 | CC1(C(=O)N2CCN(c3ccccc3)CC2)CC1(Cl)Cl (centres undefined) | inconclusive [activator, partial curve, poor fit]
29 | CC(C)(C)[C@H]1C=C(C(=O)NCc2nc3ccccc3[nH]2)O[C@@H](OCc2ccc(CO)cc2)C1 | inactive
30 | CCNC(=O)COC(=O)c1cc(C)n(-c2ccccc2)c1C | inactive
31 | COc1ccccc1NC(=O)c1sc2nc(N3CCOCC3)c3c(c2c1N)CCCC3 | inconclusive [activator, full curve]
32 | O=C1C(=O)c2ccc(-c3ccccc3)cc2-c2ccccc21 | inconclusive [activator, full curve]
33 | CC(=O)N1CCC2(CC1)C/C(=N\NC(=S)Nc1ccccc1F)c1cc(O)ccc1O2 | inconclusive [activator, single point]
34 | CC(C)(C)C1CCC2(CC1)NC(=S)N(c1ccccc1)N2 (centres undefined) | inconclusive [activator, partial curve, poor fit]
35 | Cc1oc2c(CN3CCCCC3C)c(O)ccc2c(=O)c1-c1ccccc1 (centres undefined) | inconclusive [activator, single point]
36 | c1ccc(-c2cccc(-c3ccccc3)n2)cc1 | inconclusive [activator, partial curve, poor fit]
37 | CCOC(=O)CSc1nnc2n(C3CCCCC3)c(=O)c3c4c(sc3n12)CCCC4 | inactive
38 | CC(NC(=S)NC(=O)c1ccccc1Br)c1ccccc1 (centres undefined) | inactive
39 | O=C(CSc1n[nH]c(-c2ccccc2Cl)n1)NC1CCCCC1 | inconclusive [activator, partial curve, poor fit]
40 | CCOC(=O)C1Nc2ccc(C(F)(F)F)cc2C2C=CCC12 (centres undefined) | inconclusive [activator, single point]
41 | C=C(CN(C)C)C(=O)c1ccc(C)cc1C | active: 2.91 µM
42 | COc1cccc2cc(C(=O)N3CC(C)OC(C)C3)c(=O)oc12 (centres undefined) | inactive
43 | Cc1c(N2C(=O)/C(=C/C3CC=CCC3)SC2=S)c(=O)n(-c2ccccc2)n1C (centres undefined) | inconclusive [activator, single point]
44 | C=CC[n+]1ccc(/C=C2\C=Cc3cc(C)ccc3N2CC)c2ccccc21 | inconclusive [activator, full curve, poor fit]
